Laboratory results: the supplement of paper PMC12217912
The list shows a part of the results. Sequences were assembled here from the parent chain. Values near 0.05 are background.

B1: TEV protease; numbered along this chain (parent)
chain: MGESLFKGPRDYNPISSSICHLTNESDGHTTSLYGIGFGPFIITNKHLFRRNNGTLVVQSLHGVFKVKDTTTLQQHLVDGRDMIIIRMPKDFPPFPQKLKFREPQREERICLVTTNFQTKSMSSMVSDTSCTFPSGDGIFWKHWIQTKDGQCGSPLVSTRDGFIVGIHSASNFTNTNNYFTSVPKNFMELLTNQEAQQWVSGWRLNADSVLWGGHKVFMVKPEEPFQPVKEATQL

Variants of: B1
Test: raw area under fraction-flipped curve 0-4 h after induction (AUC4h, not background-subtracted), DNA-recorder readout of cleavage of the substrate (dimensionless); higher = more cleavage of the substrate by the protease variant
Details: temperature: 34 °C; time window: 0-4 h after rhamnose induction
Method: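 In vivo DNA recorder in E. coli TOP10(DE3) ΔrhaA at 34 °C. Each TEVp single-site mutant (parent TEVp 0) is paired with a single-site variant of the 7-mer TEVs (canonical ENLYFQ|S). The substrate sits between flexible linkers in a Bxb1-sfGFP-TEVs-SsrA fusion, so cleavage stabilises Bxb1 and speeds flipping of a recombination array, read by NGS. The value is the raw area under the fraction-flipped curve over 0-4 h after rhamnose induction (AUC4h), with ≥20 reads per time point. It is not background-subtracted; inactive controls average about 0.047.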
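Also: Bxb1 expression induced with 0.2% (w/v) L-rhamnose at OD600 near 0.5, cultures sampled hourly, flipped fraction per protease–substrate barcode pair counted by paired-end Illumina sequencing.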

Row | Variant | area with substrate CNLYFQS | area with substrate HNLYFQS | area with substrate INLYFQS | area with substrate LNLYFQS | area with substrate NNLYFQS | area with substrate PNLYFQS | area with substrate SNLYFQS | area with substrate TNLYFQS | area with substrate WNLYFQS | area with substrate YNLYFQS | area with substrate GNLYFQS | area with substrate KNLYFQS | area with substrate MNLYFQS | area with substrate RNLYFQS | area with substrate VNLYFQS | area with substrate FNLYFQS | area with substrate QNLYFQS | area with substrate DNLYFQS
1 | V57K | 0.0731 | 0.069 | 0.062 | 0.0489 | 0.0604 | 0.0603 | 0.0358 | 0.066 | 0.0617 | 0.0607 |  |  |  |  |  |  |  | 
2 | V57M | 0.0712 | 0.0659 | 0.0628 | 0.0578 |  | 0.0754 | 0.0681 | 0.0757 | 0.0618 | 0.0385 | 0.0635 | 0.0666 | 0.0717 | 0.0543 | 0.0659 |  |  | 
3 | V57T | 0.0689 |  | 0.0508 |  | 0.0655 |  | 0.0749 | 0.0733 | 0.0507 | 0.0732 |  |  | 0.0601 |  |  | 0.0681 |  | 
4 | V57Y | 0.0605 | 0.066 | 0.056 |  |  | 0.0618 | 0.055 | 0.0641 |  | 0.0484 |  | 0.042 | 0.0401 |  |  |  |  | 
5 | Q59V | 0.0348 | 0.0333 |  | 0.0783 | 0.0687 |  |  | 0.062 | 0.0575 | 0.0793 | 0.0597 |  |  |  |  | 0.0607 |  | 
6 | S60F | 0.0709 |  | 0.0462 | 0.0739 | 0.0764 | 0.0811 | 0.0762 | 0.0605 | 0.0568 | 0.0679 |  | 0.0609 | 0.0663 |  |  | 0.0671 | 0.0719 | 
7 | S60V | 0.0666 | 0.0522 | 0.0709 | 0.0601 |  | 0.0629 | 0.0595 | 0.063 | 0.0573 | 0.0555 | 0.0733 | 0.0771 | 0.0638 | 0.0571 | 0.0526 | 0.0651 |  | 
8 | L61A | 0.0667 | 0.0567 |  |  |  | 0.068 | 0.0696 | 0.0723 |  | 0.0652 |  |  | 0.0643 | 0.0485 |  | 0.061 |  | 
9 | L61N | 0.0707 |  | 0.0692 |  | 0.0652 | 0.0633 | 0.0702 |  | 0.0578 |  |  |  | 0.0746 |  |  |  |  | 0.0758
10 | H62N | 0.0474 | 0.0638 |  | 0.0606 |  | 0.0739 |  | 0.0794 | 0.0742 | 0.0439 | 0.0872 |  |  |  |  |  | 0.0768 | 0.0873
11 | G63F | 0.0502 | 0.0407 |  | 0.0596 | 0.0554 | 0.0579 | 0.0661 | 0.0689 | 0.0484 | 0.0636 | 0.064 |  | 0.0511 | 0.0568 |  | 0.0482 |  | 
12 | G63I | 0.0607 | 0.0619 | 0.0556 | 0.0487 | 0.0617 | 0.0608 | 0.0454 | 0.0645 | 0.0536 | 0.0515 |  |  | 0.0922 |  |  | 0.0782 |  | 
13 | G63M | 0.113 | 0.0567 | 0.0536 | 0.0641 | 0.0676 | 0.112 | 0.0563 | 0.0659 | 0.0601 |  |  |  |  | 0.0524 | 0.0597 |  | 0.053 | 
14 | G63N | 0.058 |  |  | 0.0758 | 0.0597 | 0.0585 |  |  | 0.0509 | 0.0566 | 0.0643 |  |  |  |  | 0.0529 |  | 
15 | V64N | 0.0707 | 0.0627 | 0.0679 |  | 0.0733 | 0.0589 | 0.067 | 0.0647 | 0.0633 | 0.049 | 0.0696 | 0.0844 | 0.0644 |  | 0.0602 | 0.0572 |  | 
16 | F65E | 0.0578 | 0.062 | 0.0565 |  | 0.0535 | 0.062 | 0.0593 | 0.0914 | 0.0587 |  | 0.0652 | 0.0723 | 0.0529 |  |  | 0.0675 |  | 
